From the supplement of paper PMC11417369
± gives the standard deviation of the averaged measurements. The list shows a part of the results.

System: PfAP2-G AP2 domain (GST-tagged)
Experiment: gcPBM binding intensity (ln(normalized median fluorescence intensity)); higher = stronger DNA binding
Outline: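 An Agilent 4 × 180k array carrying primer-extended double-stranded 36-bp intergenic genomic probes and negative controls received GST-tagged P. falciparum DNA-binding domains expressed in E. coli, about 25 μg on average, for 1 h. The binding buffer contained 1× PBS, 1% milk, 0.2 mg/ml BSA, 0.5% salmon testes DNA and 0.03% Triton X-100. Binding intensity is the top Masliner-normalised natural-log median intensity across replicate spots of either probe orientation, read after Alexa488 anti-GST antibody staining and a 488 nm scan.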

Point of comparison: “TAAACATTGTAAAGGAGTACAAAATTTTTTTTATGA [XGTACX_site7757]”, “gcPBM binding intensity (ln)” value 11.4 ± 0.96. Against it:
- ATATAATTAAAATGCTCACACACATAAAAAAAAATT [CACACA_site2148] — lower, 10.1 ± 0.26
- CACATATATATGTGTGCATGTTGTATTATATATTTA [TGCATGCA_site632] — within error, 10.4 ± 0.17
- ATAATTACAAAATAAACACACATATAGATTTATATG [CACACA_site6343] — lower, 9.84 ± 0.16
- TACATAATACATATAACACACACAATTATACATAAA [CACACA_site9060] — lower, 10.1 ± 0.15
- TCTTTTAAAAAAAAAGGAGGAACATAAAAAGTAGAA [XGTACX_negctrl_site272] — within error, 10.4 ± 0.34
- AAAAATTTAAGTGGGGGTACATTTTTTTAACACCTT [XGTACX_site1093] — within error, 11.6 ± 0.66
- AACAAACACGGACACACACACACACTAGAATGATTA [CACACA_site5364] — within error, 11.3 ± 0.95
- AAAAAAAAAAAAATCACACATATGTATTTATATATA [CACACA_site5790] — lower, 9.665 ± 0.049
- ATATTTAAATGTAATACATGCAAATTTGAACATTTT [TGCATGCA_site736] — lower, 10.1 ± 0.25
- TAATATATTAACATGGGTACATATTATTTCATGTGT [XGTACX_site5985] — within error, 11.1 ± 0.73
- AAATAAGAGCGTAGCACACACGCATTTTATAAATGT [CACACA_site741] — lower, 10.1 ± 0.15
- TATCATTTTATTATTCTACACACTTATCTATAATTA [CACACA_site7894] — lower, 9.93 ± 0.014
- TTTTTTTTTTTTTTTGCATGTTGTTTAATGTATTGT [TGCATGCA_site772] — lower, 9.71 ± 0.37
- TTTTACAAAATAAAAATATAGAATACGGTAAATTAT [GTGCAC_negctrl_site40] — lower, 10.02 ± 0.078
- TAAAAATGTGGACACACACACATATTTATATTTAAT [CACACA_site6827] — the same, 11.4 ± 0.72
- TGTTGATGATATTACACACCCAATGAGAAAAGGAAT [CACACA_site2072] — lower, 10.2 ± 0.17
- TTTTTTCCTTTTAATTGTACACAGATATAATATATT [XGTACX_site2230] — within error, 11.3 ± 0.55
- AAATTTTATTATAGCAGTACAATATAATATTATTAA [XGTACX_site1971] — within error, 10.8 ± 0.49
- ATATTTAAAGAATAAGTGCAAAATGTAATTAATTTT [GTGCAC_site9901] — lower, 10.065 ± 0.007
- TATATTTTATAAAAAAGTACACATGAAAATGTATTT [XGTACX_site5889] — within error, 11.5 ± 1.1
- TGTAGTCTGGAGAAACGTACACAGTATCTGGTAACA [XGTACX_site4938] — within error, 11.5 ± 1.2
- AAAGGGGATATATGAACACACAAAAAAAAAATATAT [CACACA_site2896] — lower, 10.1 ± 0.33
- TATTTATTACTATGTAAACACACATGCAATATATGT [CACACA_site8288] — lower, 9.84 ± 0.028
- ATGCCCCATATAAACACACAAATAAAAAGAATATAC [CACACA_site7292] — lower, 10.1 ± 0.11
- AAATATTTTTTTTCTACACACATACAAATATAGATT [CACACA_site7164] — lower, 10.095 ± 0.007
- GTACTCTTCTCCAGACTGCACTATACGACTCGTACA [GTGCAC_site9770] — within error, 11 ± 0.57
- ATATATATATATATATGTACTTATATATAATATAGA [XGTACX_site3488] — within error, 11.2 ± 0.79
- ATTACATACACGCGCACACACAAAAAAAAAAAAAAA [CACACA_site1334] — within error, 10.6 ± 0.66
- TGGTATGTTTTACAAAGTACCCATCGATTCTTATGT [XGTACX_site2822] — within error, 10.9 ± 0.46
- AAAAAGTAGTAAAACAGTACAGTATTTATGCCTATT [XGTACX_site6434] — within error, 10.8 ± 0.42
- AAAAAAAAAAAAAGTACACACTTTTGCGTACATGTA [CACACA_site7449] — within error, 12 ± 0.98
- TATTTATTTATTTATTGTACATAAGTATATATTATA [XGTACX_site6566] — within error, 10.9 ± 0.64
- GAACCACTAAAATGAGCATGCTCATATTTACATATA [TGCATGCA_site1033] — lower, 9.885 ± 0.007
- AATATATTTTTCTACCGTACATAATAAAATATATAT [XGTACX_site1777] — within error, 10.7 ± 0.46
- TAATATTTTTATTATTAGAATTGTATATGTTTAATA [CACACA_negctrl_site1833] — lower, 9.535 ± 0.064
- CATATATCATAAATATGTACGAAATAAAAGAATCAT [XGTACX_site942] — within error, 10.8 ± 0.39
- TTTTCTAAAATATTCATAATAAATCAAAAAAAAAAA [GTGCAC_negctrl_site320] — lower, 9.84 ± 0.33
- ATAAAAGGAATATTTGCATGTGGTAGTACATAACAT [TGCATGCA_site978] — within error, 11.5 ± 0.87
- TGCGTATTCTTATTAGGTACACATATTCGTGATAAT [XGTACX_site5681] — within error, 11.2 ± 0.88
- TTTTCTTACTATTGTAGTACAATATTATATTCTTTT [XGTACX_site1925] — within error, 11.5 ± 0.7
- TATAAATATGTATATACACACTTTTAATATTCATAA [CACACA_site7856] — lower, 9.825 ± 0.064
- ATAGATGATATACGTAAACACACAAATAAAAAAAAT [CACACA_site9095] — within error, 10.3 ± 0.28
- TTTATTTTTCATAATTGTACAAAAATAAATGGAAAC [XGTACX_site5144] — within error, 11.1 ± 0.81
- TAATTTGAAAAATTGTGTACTCATAAAATAAATAAA [XGTACX_site2138] — within error, 11.5 ± 1.1
- GATTTATATATATAAAATAATTGAATATTTTCTTTT [CACACA_negctrl_site801] — lower, 9.4 ± 0.38
- ATAAAAAAATAAAACACACACATATAGATTATAGAT [CACACA_site7343] — lower, 9.91 ± 0.042
- TACAAATATAGACACACACACATATATATATATATA [CACACA_site585] — within error, 10.2 ± 0.36
- TTTATAATTCTTACAACACACAATGTACATTTATAT [CACACA_site1261] — within error, 11.1 ± 0.56
- TATATGAAGCTATAGACACACATATAAAAATAGAAT [CACACA_site1313] — lower, 9.97 ± 0.11
- AAATTAAAAAGAGCTTGTACAGATGTATACATAATA [XGTACX_site3882] — within error, 10.8 ± 0.47
- AAGAGAAAAATATGGTTGCACTAAAAATATATATTT — lower, 10.2 ± 0.11
- TACATACAGATATATACACACATATAAAATATAGAT [CACACA_site6319] — lower, 9.93 ± 0.14
- ATTATATATAAATATACACACATATATAAAATACAT [CACACA_site5298] — lower, 9.985 ± 0.035
- ATTCATATATTTATTGCATGCAAAGTAAAATAAATA [TGCATGCA_site307] — within error, 10.1 ± 0.44
- GACATATTAGAAGGGTGTACATACTTTTAATCATTT [XGTACX_site1698] — within error, 11.3 ± 0.7
- AATATTAAAATATAAACACACAAAATTCAATTATAT [CACACA_site5971] — lower, 9.65 ± 0.23
- TAAAAAATTAATAAAGTGCATAAATATTACAATATT — lower, 9.76 ± 0.14
- TTTTCTAAATATTATAGTACTCTTAATAATATTAAC [XGTACX_site4222] — within error, 11.1 ± 0.72
- TTAACAAAATATAGCACACATAAATATATATTTATG [CACACA_site351] — within error, 10.3 ± 0.16
- ACATAACTGATATATACACACAATACAAATATAGAT [CACACA_site7328] — lower, 10.04 ± 0.049
- AAATGTGCATTATGTTGTACAGTCGAAATTTTTTTT [XGTACX_site3812] — within error, 11.2 ± 0.64
- ATGAATAAATGAACATGTACATATATATATATATTA [XGTACX_site5005] — within error, 11 ± 0.53
- TACATATATATATGTATATATATATATATATAAATA [XGTACX_negctrl_site351] — lower, 9.58 ± 0.16
- AATAATAAAAAATACACACACATATATATATATTAC [CACACA_site3464] — lower, 9.885 ± 0.064
- TTTTTTTCATATAACACACACACAAAAATAATGTGG [CACACA_site3688] — lower, 10.2 ± 0.16
- CATACACAAGAAAATTCACACACACCCATATATATA [CACACA_site9288] — lower, 9.94 ± 0.15
- TCTTACAAAAAACAAACAGAGAAAAATATAAGGAAA [XGTACX_negctrl_site520] — lower, 9.81 ± 0.14
- AACATACAGAAACACACACACACACCCACACCCACA [CACACA_site493] — within error, 10.4 ± 0.31
- TTTTTTTTTTTGTATCGTACATTTATAATGTTTATA [XGTACX_site6804] — within error, 10.6 ± 0.47
- AAGTTAACAATATGAAGTACAAATGAAAAAAAAAAA [XGTACX_site666] — within error, 11.2 ± 0.84
- ATATATATATATCATAGTACACATATGTGTCTCGTG [XGTACX_site774] — within error, 11.1 ± 0.66
- TTGTTATAGAAGCATTCACACACACCCATACATACA [CACACA_site8414] — within error, 10.5 ± 0.42
- AATATCATTATATAAGTGCATTTTTTAAAAGATAAA [GTGCAC_site9479] — lower, 9.855 ± 0.049
- TTAATAGGTCGAAGTAGTACATAAAAATATATATAT [XGTACX_site5960] — the same, 11.4 ± 0.98
- ATATATATTTATTTATGTACGAATAAATTTACGAAT [XGTACX_site5190] — within error, 11.1 ± 0.8
- TATATACCACATTGTTGTACGACACATTTACATTTT [XGTACX_site8370] — the same, 11.4 ± 0.67
- TCAAAGCACAGATACACACACATATATATATATATA [CACACA_site287] — lower, 10 ± 0.19
- AATTAAAAAATTATCACACATATATATATATATATA [CACACA_site5789] — lower, 9.95 ± 0.42
- ATGTCTTTGAAAAAAAGTACTTAAAATTATAAAAAT [XGTACX_site147] — the same, 11.4 ± 0.66
- ACTGTCGTTTTAAAGAGTACATAAAATATTAAATTA [XGTACX_site3589] — within error, 11.3 ± 0.86
- TTCTTTTAAAGGTATACATGCGCATGGATTTTTCAT [TGCATGCA_site223] — lower, 10.2 ± 0.18
- AAGTAAATATAATAAGGTACACATAAATAAATAAAT [XGTACX_site1740] — within error, 11.2 ± 0.86
- ATTCTGAATGTTATGCGTACATATTAATCCTATTTA [XGTACX_site1216] — within error, 11.5 ± 0.93
- TAAGGTTCATTAAAGTGTACACATAAATACCGTAAC [XGTACX_site8212] — within error, 11.6 ± 0.95
- TGTAATAATTATTGCACGCACACAAAAACCTATAGA [CACACA_site2932] — within error, 10.7 ± 0.4
- TCCAAATAAATATATTGTACAGAATTATTGATACCT [XGTACX_site327] — within error, 10.8 ± 0.42
- ATGTTGTTATAAAGAGTGCAACGTATATGTATCCTT [GTGCAC_site9935] — lower, 10.2 ± 0.057
- AGAAAAGGAAAATAAACATGCAAAAATAATATTAAA [TGCATGCA_site337] — lower, 9.77 ± 0.28
